# Assay results: the supplement of paper PMC8728848
# Some of the results follow.
# Experiments:
# Experiment in all cases: glycan array binding signal (z-score within array); higher = stronger binding
# Conditions in all cases: glycan notation: IUPAC condensed, linker removed; mutation: R343I
# [1] = molecular target: Gal(b1-4)GlcNAc(b1-3)Gal(b1-4)GlcNAc(b1-3)Gal(b1-4)GlcNAc
# In short: (§1)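 Arrays were curated from the Consortium for Functional Glycomics database, 3228 in total, and kept only where the protein sequence was available. Binding is expressed as a within-array Z-score. This score was averaged across arrays of the same protein sequence at different concentrations or buffers and across linkers, and negative values can be read as non-binding.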
# [2] = molecular target: Gal(b1-4)GlcNAc(b1-3)Gal(b1-4)[Fuc(a1-3)]GlcNAc(b1-3)Gal(b1-4)[Fuc(a1-3)]GlcNAc
# In short: as §1
# [3] = molecular target: Gal(b1-4)GlcNAc(b1-3)GalNAc
# In short: as §1
# [4] = molecular target: Gal(b1-4)GlcNAc(b1-3)[Gal(b1-4)GlcNAc(b1-6)]Gal(b1-4)GlcNAc
# In short: as §1
# [5] = molecular target: Gal(b1-4)GlcNAc(b1-3)[GlcNAc(b1-6)]Gal(b1-4)GlcNAc
# In short: as §1
# [6] = molecular target: Gal(b1-4)GlcNAc(b1-6)Gal(b1-4)GlcNAc
# In short: as §1
# [7] = molecular target: Gal(b1-4)GlcNAc(b1-6)Gal(b1-4)GlcNAc(b1-6)GalNAc
# In short: as §1
# [8] = molecular target: Gal(b1-4)GlcNAc(b1-6)GalNAc
# In short: as §1
# [9] = molecular target: Gal(b1-4)GlcNAc(b1-6)[Gal(b1-3)]GalNAc
# In short: as §1
# Gal3S(b1-3)GalNAc = molecular target: Gal3S(b1-3)GalNAc
# In short: as §1
# Gal3S(b1-3)GlcNAc = molecular target: Gal3S(b1-3)GlcNAc
# In short: as §1
# [10] = molecular target: Gal3S(b1-3)[Fuc(a1-4)]GlcNAc
# In short: as §1
# Gal3S(b1-4)Glc = molecular target: Gal3S(b1-4)Glc
# In short: as §1
# Gal3S(b1-4)Glc6S = molecular target: Gal3S(b1-4)Glc6S
# In short: as §1
# Gal3S(b1-4)GlcNAc = molecular target: Gal3S(b1-4)GlcNAc
# In short: as §1
# Gal3S(b1-4)GlcNAc6S = molecular target: Gal3S(b1-4)GlcNAc6S
# In short: as §1
# [11] = molecular target: Gal3S(b1-4)[Fuc(a1-3)]Glc
# In short: as §1
# Gal3S4S(b1-4)GlcNAc = molecular target: Gal3S4S(b1-4)GlcNAc
# In short: as §1
# Gal3S6S(b1-4)GlcNAc = molecular target: Gal3S6S(b1-4)GlcNAc
# In short: as §1
# Gal3S6S(b1-4)GlcNAc6S = molecular target: Gal3S6S(b1-4)GlcNAc6S
# In short: as §1
# Gal4S(b1-4)GlcNAc = molecular target: Gal4S(b1-4)GlcNAc
# In short: as §1
# Gal4S6S(b1-4)GlcNAc = molecular target: Gal4S6S(b1-4)GlcNAc
# In short: as §1
# Gal6S(b1-4)Glc = molecular target: Gal6S(b1-4)Glc
# In short: as §1
# Gal6S(b1-4)Glc6S = molecular target: Gal6S(b1-4)Glc6S
# In short: as §1
# Gal6S(b1-4)GlcNAc = molecular target: Gal6S(b1-4)GlcNAc
# In short: as §1
# Gal6S(b1-4)GlcNAc6S = molecular target: Gal6S(b1-4)GlcNAc6S
# In short: as §1
# GalNAc(a1-3)Gal = molecular target: GalNAc(a1-3)Gal
# In short: as §1
# GalNAc(a1-3)GalNAc = molecular target: GalNAc(a1-3)GalNAc
# In short: as §1
# GalNAc(b1-3)Gal = molecular target: GalNAc(b1-3)Gal
# In short: as §1
# [12] = molecular target: GalNAc(b1-3)Gal(a1-4)Gal(b1-4)GlcNAc
# In short: as §1
binder,measurement,setting,value
Surfactant Protein D (Human); Neck + Carbohydrate Recognition Domain (NCRD) (Homo sapiens) (protein) MLLFLLSALVLLTQPLGYLEAEMKTYSHRTMPSACTLVMCSSVESGLPGRDRDGREGPRGEKGDPGLPGAAGQAGMPGQAGPVGPKGDNGSVGEPGPKGDTGPSGPPGPPGVPGPAGREGALGKQGNIGPQGKPGPKGEAGPKGEVGAPGMQGSAGARGLAGPKGERGVPGERGVPGNTGAAGSAGAMGPQGSPGARGPPGLKGDKGIPGDKGAKGESGLPDVASLRQQVEALQGQVQHLQAAFSQYKKVELFPNGQSVGEKIFKTAQFVKPFTEAQLLCTQAGGQLASPRSAAENAALQQLVVAKNEAAFLSMTDSKTEGKFTYPTGESLVYSNWAPGEPNDDGGSEDCVEIFTNGKWNDIACGEKRLVVCEF,glycan array binding signal (z-score),[1],-0.277
same,glycan array binding signal (z-score),[2],-0.23
same,glycan array binding signal (z-score),[3],-0.26
same,glycan array binding signal (z-score),[4],-0.274
same,glycan array binding signal (z-score),[5],-0.273
same,glycan array binding signal (z-score),[6],-0.278
same,glycan array binding signal (z-score),[7],-0.274
same,glycan array binding signal (z-score),[8],-0.275
same,glycan array binding signal (z-score),[9],-0.275
same,glycan array binding signal (z-score),Gal3S(b1-3)GalNAc,-0.268
same,glycan array binding signal (z-score),Gal3S(b1-3)GlcNAc,-0.269
same,glycan array binding signal (z-score),[10],-0.267
same,glycan array binding signal (z-score),Gal3S(b1-4)Glc,-0.246
same,glycan array binding signal (z-score),Gal3S(b1-4)Glc6S,-0.263
same,glycan array binding signal (z-score),Gal3S(b1-4)GlcNAc,-0.278
same,glycan array binding signal (z-score),Gal3S(b1-4)GlcNAc6S,-0.27
same,glycan array binding signal (z-score),[11],-0.266
same,glycan array binding signal (z-score),Gal3S4S(b1-4)GlcNAc,-0.265
same,glycan array binding signal (z-score),Gal3S6S(b1-4)GlcNAc,-0.262
same,glycan array binding signal (z-score),Gal3S6S(b1-4)GlcNAc6S,-0.264
same,glycan array binding signal (z-score),Gal4S(b1-4)GlcNAc,-0.269
same,glycan array binding signal (z-score),Gal4S6S(b1-4)GlcNAc,-0.267
same,glycan array binding signal (z-score),Gal6S(b1-4)Glc,-0.262
same,glycan array binding signal (z-score),Gal6S(b1-4)Glc6S,-0.258
same,glycan array binding signal (z-score),Gal6S(b1-4)GlcNAc,-0.268
same,glycan array binding signal (z-score),Gal6S(b1-4)GlcNAc6S,-0.273
same,glycan array binding signal (z-score),GalNAc(a1-3)Gal,-0.276
same,glycan array binding signal (z-score),GalNAc(a1-3)GalNAc,-0.277
same,glycan array binding signal (z-score),GalNAc(b1-3)Gal,-0.272
same,glycan array binding signal (z-score),[12],-0.249
